# According to PubChem BioAssay AID485344 (National Center for Advancing Translational Sciences (NCATS), 2010):
# Among all 340,000 compounds or so, about 6,900 (2%) were called active. No stated cut-off is given here; in the data, active means inhibition above about 30%; inactive means below that, where a call was filed. This is a selection; strong and weak results do not stand in their true shares. The source gives no active or inactive call for entries shown without one.
# Target: D(2) dopamine receptor (Homo sapiens) (UniProt P14416)
# Experiment: HTS Assay for Allosteric Antagonists of the Human D2 Dopamine Receptor: Primary Screen for Antagonists; further: 0% is about no effect
# Conditions: HEK293 TREx D2 cells, calcium flux, dopamine EC80; at 10 µM; stronger effect = higher value
# In short: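 Read-out: kinetic calcium fluorescence (1 cycle/s) in inducible HEK293 T-REx D2 cells after an EC80 dopamine addition that followed 180 s compound preincubation. Loss of the dopamine response indicates antagonism.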
# UniProt P14416, sequence (P14416 whole entry, looked up): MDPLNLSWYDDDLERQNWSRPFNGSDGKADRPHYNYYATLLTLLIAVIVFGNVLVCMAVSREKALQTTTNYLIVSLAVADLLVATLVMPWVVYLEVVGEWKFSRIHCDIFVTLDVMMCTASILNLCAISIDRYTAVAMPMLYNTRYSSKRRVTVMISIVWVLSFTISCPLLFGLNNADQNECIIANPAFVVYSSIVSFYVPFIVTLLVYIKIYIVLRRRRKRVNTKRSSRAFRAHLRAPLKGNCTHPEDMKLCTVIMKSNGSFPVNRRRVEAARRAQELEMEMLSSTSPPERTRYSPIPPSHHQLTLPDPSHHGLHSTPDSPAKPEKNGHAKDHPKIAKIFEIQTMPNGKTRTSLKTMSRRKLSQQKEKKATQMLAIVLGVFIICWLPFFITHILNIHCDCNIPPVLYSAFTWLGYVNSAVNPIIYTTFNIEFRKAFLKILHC
row,Structure (SMILES),inhibition
1,COc1ccc(S(=O)(=O)N2CCC(c3nnnn3-c3ccccc3)CC2)cc1OC,13.1%
2,Cc1ccc(Cl)cc1N1CCN(C(=O)c2cnc3c(-c4ccc(F)cc4)c(C)nn3c2C)CC1,-8.4%
3,O=C(Cn1cc(SCc2ccc(F)cc2)c2ccccc21)N1CCCC1,5.02%
4,CCN(CC)S(=O)(=O)c1ccc2c(c1)c(=O)c(C(=O)N1CCN(c3cc(C)ccc3C)CC1)cn2C,13.3%
5,CCc1nnc(NC(=O)c2nc(SCc3ccc(F)cc3)ncc2Cl)s1,2.4%
6,CCOc1ccc(OCC)c(NS(=O)(=O)c2ccc3c(c2)CCCN3C(C)=O)c1,-22.6%
7,CCC12CCCN3CCc4c(n(c5ccccc45)C(O)(C(=O)OC)C1)C32 (stereo not given),active: 51%
8,CCCCn1c(C2CC(=O)N(c3ccc(OCC)cc3)C2)nc2ccccc21 (stereo not given),-3.5%
9,O=C(OCC1CCCO1)c1ccc2c(c1)N(Cc1c(F)cccc1Cl)C(=O)c1ccccc1S2(=O)=O (stereo not given),6.14%
10,COc1ccc(-n2nc(C(=O)N3CCN(c4cccc(C)c4)C(C)C3)c3c4ccccc4n(C)c3c2=O)cc1Cl (stereo not given),-27.3%
11,O=C(Cn1nc2c(cc1=O)CCCC2)NCc1ccccc1,13.9%
12,Cc1ccccc1-c1noc(-c2ccc(NC3CCCC3)c([N+](=O)[O-])c2)n1,-4.46%
13,COc1cccc(-n2c(=O)c3c4c(sc3n(Cc3ccccc3C#N)c2=O)CCCC4)c1,-2.09%
14,O=S(=O)(c1ccc2nc(Nc3ccc(Br)cc3F)ccc2c1)N1CCCC1,0.431%
15,COc1ccccc1NC(=O)CN1CCN(c2ccccn2)CC1,active: 50.1%
16,COc1ccc(OC)c(CNC(=O)c2cnc(N(C)C)nc2)c1,-24.3%
17,CC(=O)Nc1cccc(-c2nnc(SCC(=O)c3ccc([N+](=O)[O-])cc3)o2)c1,-6.13%
18,CCOc1ccccc1/C=C/c1onc(C)c1S(=O)(=O)N1CCC(C(=O)N2CCCCC2)CC1,8.34%
19,COc1cc(CN(C(=O)c2ccc(C)cc2)c2ccccn2)cc(OC)c1OC,-13.7%
20,Cc1ccc(-n2nc(C)c3c(C(=O)Nc4ccc(C)cc4Cl)cc(C)nc32)cc1,11.6%
21,CCOC(=O)CSc1nc(-c2ccc(OC)cc2)cc(C(F)(F)F)c1C#N,-2.12%
22,CN(C(=O)CSc1nc2ccc(NC(=O)c3ccccc3)cc2s1)c1ccccc1,-7.64%
23,COc1ccc(Cn2c(NCC(C)C)nc3c2c(=O)n(C)c(=O)n3C)cc1,4.41%
24,Cc1ccc(C2=NN(CCC(=O)NCCc3cccc(C)c3)C(=O)CC2)cc1,-2.86%

row,Structure (SMILES),inhibition
1,Cc1cccc(CNC(=O)CCCN2C(=O)c3cccnc3Oc3ccccc32)c1,-8.64%
2,COc1ccc(-c2noc(-c3ccc(NCc4ccco4)c([N+](=O)[O-])c3)n2)cc1OC,3.89%
3,CCc1ccc(N2CC(c3nc4ccccc4n3Cc3ccccc3C)CC2=O)cc1 (stereo not given),5.27%
4,Cc1ccc(S(=O)(=O)N(C)C)cc1NC(=O)CSc1ncc(C(F)(F)F)cc1Cl,active: 37.2%
5,CCOc1ccc(C(=O)NCCc2sc(-c3cccc(F)c3)nc2C)cc1OCC,19%
6,O=C(COc1ccccc1)NCCS(=O)(=O)N1CCN(c2ccccc2)CC1,active: 77.4%
7,O=C(Nc1ccc(OCc2cc(=O)n3c4c(sc3n2)CCCC4)cc1)c1ccc(F)cc1,6.08%
8,COC(=O)Cc1c(C)c2ccc3c(c2oc1=O)CN(Cc1ccc(C)cc1)CO3,14.4%
9,COc1ccc(-n2nnnc2SCC(=O)NCCc2ccccc2)cc1,2.12%
10,Cc1ccccc1-c1noc(CSc2nc(-c3ccc(F)cc3)cc(=O)[nH]2)n1,0.775%
11,CCc1ccccc1NS(=O)(=O)c1ccc2[nH]cc(C(=O)NC3CCCC3)c(=O)c2c1,-11.8%
12,NC(=O)C1CCN(c2ncnc3c2cnn3-c2cccc(Cl)c2)CC1,10.2%
13,C/C(=N\NC(=S)Nc1cccc(C)c1)c1ccco1,active: 67.2%
14,CCOc1ccc(CCNC(=O)CCn2c(=O)c3cccn3c3ccc(F)cc32)cc1,6.95%
15,CC(C)COc1ccc(C(=O)Nc2onc3c2CCCC3)cc1,19.6%
16,Cc1ccc(NC(=O)Cn2nc(C(F)(F)F)c3c2CCC3)cc1C,5.38%
17,O=C(Nc1cccc(C(F)(F)F)c1)C1CCN(S(=O)(=O)c2cccc3nsnc23)CC1,19.4%
18,COc1ccc(-c2cnc(C)o2)cc1S(=O)(=O)Nc1cccc(C(F)(F)F)c1,17.1%
19,CCOC(=O)c1cnn2c(C(F)(F)F)cc(-c3ccc(Br)cc3)nc12,-17.6%
20,CCC1Oc2ccc(C)cc2N(CC(=O)NCCc2ccccc2)C1=O (stereo not given),-15.5%
21,CCOC(=O)c1cnc2ccc(OC(F)(F)F)cc2c1Nc1ccccc1C(=O)O,-17.1%
22,Cc1ccc(NC(=O)CCCN2C(=O)COc3ccc(C)cc32)c(Cl)c1,19.3%
23,COc1cccc(/C=C/c2nc(C#N)c(N3CCCCCC3)o2)c1,-1.51%
24,CCc1ccc2nc(N(Cc3cccnc3)C(C)=O)sc2c1,-5.74%

row,Structure (SMILES),inhibition
1,CCOC(=O)c1ccc(CN(Cc2ccc(Cl)cc2Cl)S(=O)(=O)c2ccc(F)c(C)c2)cc1,-12.7%
2,O=C(COc1ccc(Br)cc1Cl)Nc1ncn[nH]1,-17.4%
3,CCc1ccc(NC(=O)CSc2nc(-c3ccccc3Cl)nc3c2Cc2c(CO)cnc(C)c2O3)cc1,0.886%
4,COc1ccc(OCC(=O)Nc2ccc3c(c2)nc(CCNC(=O)c2ccco2)n3C)cc1,-0.228%
5,COc1ccccc1CNC(=O)C1=C(C)C(=O)OC12CCC(C)CC2 (stereo not given),active: 47.4%
6,CCOc1ccc(CCNC(=O)c2nn(-c3ccc(OC)c(Cl)c3)c(=O)c3c2c2ccccc2n3C)cc1OCC,2.95%
7,COc1cc2[nH]c(=S)nc(NCC3CCCO3)c2cc1OC (stereo not given),active: 32.5%
8,CN1CC[n+]2c(CN3C(=O)c4ccccc4C3=O)csc21,active: 45.2%
9,COc1ccc(C2CC(=O)N(Cc3ccc(F)cc3)c3ccccc3S2)cc1OC (stereo not given),-18.3%
10,COc1ccc(OC)c2sc(N3CCN(C(=O)c4ccc5c(c4)CCCC5)CC3)nc12,-1.99%
11,CCC1CCc2nc3sc(C(=O)Nc4ccc(C)cc4)c(N)c3cc2C1 (stereo not given),-2.54%
12,CCCCCn1c(=O)[nH]c2cc(C(=O)NCc3ccc(Cl)cc3)ccc2c1=O,14.9%
13,COc1ccccc1C(=O)NCCn1cc(SCc2ccc(C)cc2)c2ccccc21,8.26%
14,c1ccc(N2CCN(Cc3cccn3-c3nnc(N4CCN(C5CCCCC5)CC4)s3)CC2)cc1,6.87%
15,CCc1ccc(-c2nn(CC(=O)NC3CCCCC3)c3c2cnc2ccc(C)cc23)cc1,-13.7%
16,CCc1ccccc1NS(=O)(=O)c1ccc2c(c1)CCN2C(=O)C1CC1,24.3%
17,CCN(c1ccccc1C)S(=O)(=O)c1ccc(N2CCCCS2(=O)=O)cc1,9.73%
18,CC1CC(C)(C)NC(=S)N1CCC(=O)NCCc1ccc(Cl)cc1 (stereo not given),active: 34.7%
19,CCSc1nnc2c(n1)OC1(CCCC1)Nc1ccccc1-2,active: 38.7%
20,CCOc1cc(N2CCOCC2)c(OCC)cc1NC(=O)C1=COCCO1,active: 39.1%
21,O=C(O)c1ccc(Nc2nc3ccccc3n3cnnc23)cc1,1.23%
22,Cc1nn(C)c2c1c(C(F)(F)F)cc(=O)n2CC(=O)NCCC(C)C,2.88%
23,Cc1cccc(-c2nc3scc(CCNS(=O)(=O)c4ccc(Oc5ccccc5)cc4)n3n2)c1,-15.5%
24,O=C(Nc1ccc2oc(-c3cccnc3)nc2c1)c1ccc(-c2ccccc2OC(F)(F)F)o1,0.153%

row,Structure (SMILES),inhibition
1,COc1ccc(-n2nc(C(=O)Nc3cc(OC)c(OC)c(OC)c3)c(=O)n(C)c2=O)cc1,-10.9%
2,COc1ccc(-n2nc(C(=O)N3CCN(c4ccc(F)cc4)CC3)c3c4ccccc4n(C)c3c2=O)cc1,-0.485%
3,CC1=C(c2ccc(C)cc2)S(=O)(=O)NC1=NCCCN1CCN(c2ccccc2F)CC1,16.3%
4,CN(C)S(=O)(=O)c1ccc2c(c1)N(CC(=O)NCc1ccc(F)cc1)C(=O)CS2,-0.23%
5,COc1ccc(C)cc1NC(=O)Cn1c(=O)c(C(F)(F)F)nc2ccccc21,-7.22%
6,Cn1nc(C(F)(F)F)c(C#N)c1N1CCN(c2cccc(C(F)(F)F)c2)CC1,active: 43.2%
7,COc1ccc(Oc2c(C(F)(F)F)oc3c(CN4CCCC(C)C4)c(O)ccc3c2=O)cc1 (stereo not given),1.32%
8,COc1ccccc1N1CCN(c2ccc(=O)n(CC(=O)NCc3ccc(OC(C)C)cc3)n2)CC1,-2.32%
9,O=C(c1cc([N+](=O)[O-])ccc1Cl)N1CCN(c2ccc([N+](=O)[O-])cc2)CC1,active: 40.8%
10,O=C(Nc1ccc2oc(-c3cccnc3)nc2c1)c1ccc(Br)cc1,-7.84%
11,CC(Sc1nnc(-c2ccccc2F)n1C1CC1)C(=O)NC(N)=O (stereo not given),active: 45.3%
12,COc1ccc(NC(=O)Cn2c(=O)n(Cc3nc(-c4ccccc4)no3)c(=O)c3cc4c(cc32)OCO4)c(OC)c1,4.58%
13,Cc1ccc(CN2CCCn3nc(C(=O)NC(C)C)cc3C2=O)cc1,-6.03%
14,CC(=O)Nc1nonc1-c1nnc(SCC(=O)Nc2cccc(F)c2)n1-c1ccccc1,3.52%
15,CC(=O)c1ccc(NC(=O)C2Cc3ccccc3N2C(=O)c2ccccc2)cc1 (stereo not given),-13.9%
16,Cc1ccc(N2CCN(S(=O)(=O)c3cc(C(=O)Nc4cc(Cl)cc(Cl)c4)ccc3F)CC2C)cc1 (stereo not given),16.3%
17,COC(=O)c1scc(-c2ccc(C)cc2)c1S(=O)(=O)Nc1ccc(F)cc1F,4.07%
18,Cc1cccc(-n2c(=O)c3c(c4cc(C)ccc4n3C)n(CC(=O)NCC3CCCO3)c2=O)c1 (stereo not given),-0.665%
19,Cc1cccc(N2C(=O)C(CC(=O)Nc3ccc(Cl)cc3)N(Cc3ccco3)C2=O)c1 (stereo not given),-7.39%
20,CCCOc1ccc(C(=O)Nc2cc3c(cc2N2CCOCC2)n(C)c(=O)n3C)cc1,-10.4%
21,Cc1oc(-c2cccc(Cl)c2)nc1CS(=O)(=O)CC(=O)NCc1ccccc1Cl,10%
22,Cc1ccc2c(c1)c(=O)c1ccccc1n2CCCC(=O)Nc1cc(Cl)ccc1C,-1.49%
23,Cc1oc2ccc(O)c(CN3CCN(C)CC3)c2c1C(=O)Nc1cccc(Cl)c1C,3.53%
